Laboratory results published in PubChem BioAssay AID588342 (National Center for Advancing Translational Sciences (NCATS), 2011).
The campaign covered roughly 360,000 compounds. About 25,000 (6.9%) were called active. This list was built around the results that the source calls inconclusive (neither active nor inactive); the mix of calls is not that of the screen. The call rests on the fitted dose curve; in most records, active means well fitted inhibition curve with a large enough effect; inconclusive means small, poorly fitted or top-dose-only effect; inactive means flat fitted curve, though single readings scatter. Potencies of inconclusive entries are doubtful fits and often do not repeat.
Further: nearly all actives have a fitted effect of over 55% in size.
Potency means the concentration at half of the fitted maximal effect; tags describe the fitted curve by direction and shape.
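Wherever activity change, negative = inhibition is given: plate controls were vehicle for no effect and reference inhibitor for full effect.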

These compounds were tested against Luciferin 4-monooxygenase (Photinus pyralis) (UniProt P08659) (assay: qHTS profiling assay for firefly luciferase inhibitor/activator using purifed enzyme and Km concentrations of substrates (counterscreen for miR-21 project)). Conditions: purified FLuc, luminescence inhibition; series mostly up to 57.5 µM; activity change, negative = inhibition: at the top concentration.
Sequence of UniProt P08659 (P08659 whole entry, looked up): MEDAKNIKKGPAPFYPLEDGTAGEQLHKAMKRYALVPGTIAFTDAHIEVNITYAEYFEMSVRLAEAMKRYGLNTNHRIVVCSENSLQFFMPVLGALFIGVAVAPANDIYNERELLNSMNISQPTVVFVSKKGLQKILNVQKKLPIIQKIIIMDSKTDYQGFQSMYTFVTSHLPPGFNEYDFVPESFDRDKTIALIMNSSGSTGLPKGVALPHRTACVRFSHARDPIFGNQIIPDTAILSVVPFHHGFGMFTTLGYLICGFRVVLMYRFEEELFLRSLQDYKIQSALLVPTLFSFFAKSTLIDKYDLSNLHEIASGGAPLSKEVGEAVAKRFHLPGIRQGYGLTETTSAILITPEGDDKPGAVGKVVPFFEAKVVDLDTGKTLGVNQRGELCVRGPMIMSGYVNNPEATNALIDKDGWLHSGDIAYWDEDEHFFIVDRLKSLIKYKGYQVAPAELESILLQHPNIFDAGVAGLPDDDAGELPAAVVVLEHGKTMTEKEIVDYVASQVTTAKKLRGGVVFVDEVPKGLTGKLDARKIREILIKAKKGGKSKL
Procedure, shortened: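 Purified P. pyralis luciferase, 10 nM final, with Km-level 10 uM D-luciferin and 10 uM ATP in 50 mM Tris acetate pH 7.5, 10 mM Mg acetate, 0.01% Tween-20, 0.05% BSA; 6-point qHTS titration about 60 µM downward; luminescence read.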
With O=C(CSc1nc(-c2ccccc2F)nc2cc(=O)[nH]n12)Nc1cccc(C(F)(F)F)c1 the Potency was inconclusive: 13.5 µM [inhibitor, partial curve]. In the case of O=C1NC(=O)/C(=C/C(=O)N2CCOCC2)S1, the “activity change, negative = inhibition” value is reported as inactive: -2.41%. CCN(CC)c1ccc(C(=O)NNC(=O)CCNC(=O)c2ccccc2)cc1 was tested, and the Potency was inconclusive: 21.3 µM [inhibitor, partial curve]. For CCCC(C(=O)O)n1c(O)c(C=C2N=c3ccccc3=N2)sc1=S (stereo unspecified), the Potency was inconclusive: 23.9 µM [inhibitor, single point]. In the case of COc1cccc(CN(C)C(=O)c2ccc3c(=O)n4c(nc3c2)CCC4)c1OC, the Potency is reported as inconclusive: 26.9 µM [inhibitor, single point]. CCCn1c(C)cc(-c2csc(N)n2)c1C was tested, and the Potency was inconclusive: 26.9 µM [inhibitor, partial curve]. With Cc1coc2c1c(C)cc1oc(=O)c(CC(=O)NCC(=O)O)c(C)c12 the Potency was inconclusive: 21.3 µM [inhibitor, single point]. O=c1[nH]c(C(Cl)Cl)nc2sc3c(c12)CCN(Cc1ccccc1)C3 was tested, and the Potency was inconclusive: 37.9 µM [inhibitor, partial curve, poor fit]. CC1CC(C)CN(CCCNC(=O)CCNC(=O)Cn2ccc3ccccc3c2=O)C1 (stereo unspecified) was tested, and the “activity change, negative = inhibition” value was inactive: 1.59%. C=C(C)C(=O)Nc1nnc(-c2cccs2)s1 was tested, and the Potency was active: 16.9 µM. With CCCCn1nnc(NC(=S)NC(=O)c2cccs2)n1 the Potency was inconclusive: 26.9 µM [inhibitor, single point]. Cc1cc(OCC(=O)O/N=C(\N)c2ccccc2)ccc1Br was tested, and the Potency was inconclusive: 26.9 µM [inhibitor, partial curve]. In the case of O=C(O)c1c(-c2ccccc2)oc2ccc(OCc3c(F)cccc3Cl)cc12, the Potency is reported as inconclusive: 9.53 µM [inhibitor, partial curve]. With COc1cccc(C(=O)Nc2cccc(-c3nc4ncccn4c3C)c2)c1 the Potency was inconclusive: 26.9 µM [inhibitor, partial curve, poor fit]. NC(=O)[C@@H]1CC2(CC(c3cccc(NC(=O)COc4ccc(Cl)cc4)c3)=NO2)CN1C(=O)c1ccccc1 (stereo partly specified) was tested, and the Potency was active: 15.1 µM. For COc1ccc(NC(=O)c2cccn(CC=C(C)C)c2=O)cc1, the Potency was active: 16.9 µM. With COc1ccc(-c2nc3cc(C)ccn3c2NC(=O)c2cccc(F)c2)cc1 the Potency was inconclusive: 16.9 µM [inhibitor, partial curve]. For Cn1c(=O)c2c(-c3ccc(Br)cc3)n(Cc3ccc(F)cc3)cc2n(C)c1=O, the “activity change, negative = inhibition” value was inactive: -9.13%. With COc1cccc(CNC(=O)CN2C(=O)N(c3ccc(C)cc3C)S(=O)(=O)c3ccccc32)c1OC the “activity change, negative = inhibition” value was inactive: -2.29%. O=C(NC(=S)Nc1ccc(N2CCOCC2)cc1)c1ccc2c(c1)OCCO2 was tested, and the Potency was inconclusive: 26.9 µM [inhibitor, partial curve, poor fit]. In the case of CC1CCCCN1S(=O)(=O)c1ccc(C(=O)Nc2sccc2C(N)=O)cc1 (stereo unspecified), the Potency is reported as active: 21.3 µM. CCc1nc(-c2cc(S(=O)(=O)N3CCN(c4ccccc4)CC3)ccc2OC)no1 was tested, and the “activity change, negative = inhibition” value was inactive: 0.525%. With COc1ccc(C)cc1-n1cnc2cc(C(=O)NC3CCCCCC3)ccc21 the “activity change, negative = inhibition” value was inactive: -5.67%. COc1ccc(N(C)S(=O)(=O)c2cccc(C(=O)N3CCN(Cc4ccc5c(c4)OCO5)CC3)c2)cc1 was tested, and the “activity change, negative = inhibition” value was inactive: -0.675%. For Cc1ccc2onc(CNC(=O)NCc3ccc(Cl)cc3)c2c1, the Potency was inconclusive: 3.38 µM [inhibitor, partial curve, poor fit]. With O=C(O)c1cc(N/N=C/c2c(O)ccc3ccccc23)ccc1Cl the Potency was active: 2.39 µM. In the case of O=C(NCCc1ccccc1)c1cc(-c2ccco2)on1, the Potency is reported as active: 6.01 µM. With CC(C)(C)c1ccc(C(=O)N2CCN(c3ncccn3)CC2)cc1 the Potency was inconclusive: 37.9 µM [inhibitor, partial curve, poor fit]. COCCNC(=O)CSc1nc(-c2ccccc2)cs1 was tested, and the Potency was inconclusive: 16.9 µM [inhibitor, partial curve]. With Clc1ccc(CSc2snnc2-c2ccccc2)c(Cl)c1 the Potency was active: 13.5 µM. With Cc1ccc2c(c1)C1(C(=O)N2)N2CCCC2C(C(=O)c2ccc3ccccc3c2)C12C(=O)Nc1ccccc12 (stereo unspecified) the Potency was inconclusive: 23.9 µM [inhibitor, single point]. For CCOC(=O)c1c(C)[nH]c(C)c1S(=O)(=O)N(C)CC(=O)NCc1ccc(Cl)cc1, the “activity change, negative = inhibition” value was inactive: 0.577%. COc1ccc(-n2cnc3cc(C(=O)NC4CCCCCC4)ccc32)cc1 was tested, and the Potency was inconclusive: 26.9 µM [inhibitor, partial curve, poor fit]. With CCN1CCN(Cc2ccc(NC(=O)c3cc(NC(=O)c4ccno4)cc(OC)c3)cc2C(F)(F)F)CC1 the “activity change, negative = inhibition” value was inactive: -2.58%. For COc1ccc(/C=C/c2ccncc2)cc1OC, the Potency was inconclusive: 23.9 µM [inhibitor, partial curve]. In the case of Cc1ccc(C(=O)Nc2ccc(C(=O)NCC3CCCO3)cc2)cc1 (stereo unspecified), the Potency is reported as inconclusive: 15.1 µM [inhibitor, partial curve]. With Cc1ccc(-c2nc3c4ccccc4n(CC(=O)NCc4ccc(F)cc4)c(=O)n3n2)cc1 the “activity change, negative = inhibition” value was inactive: -2.27%. In the case of O=C(NNC(=S)Nc1cccc(C(F)(F)F)c1)c1ccc(Cl)cc1Cl, the Potency is reported as inconclusive: 23.9 µM [inhibitor, partial curve, poor fit]. In the case of CCOc1ccc(NC(=O)c2nn(C)cc2Br)cc1, the Potency is reported as active: 7.57 µM. In the case of O=C(Nc1ccc(NC(=O)c2ccc([N+](=O)[O-])cc2[N+](=O)[O-])cc1)c1ccco1, the “activity change, negative = inhibition” value is reported as inactive: 2.38%. Cc1ccc(N/C=C2/Sc3ccccc3NC2=O)cc1 was tested, and the Potency was active: 1.9 µM. For COC(=O)c1c(NC(=O)/C=C/C(=O)O)sc(C)c1-c1ccc(C)cc1, the Potency was inconclusive: 23.9 µM [inhibitor, partial curve, poor fit]. CCOCC(=O)Nc1cc(Cl)ccc1C was tested, and the “activity change, negative = inhibition” value was inactive: -1.52%. CCOC(=O)c1sc(SCC(=O)Nc2ccc(N(C)C)cc2)nc1N was tested, and the Potency was active: 6.01 µM. With CCOc1ccc(C(=O)CC(Sc2ccc(C)cc2)C(=O)O)cc1 (stereo unspecified) the Potency was inconclusive: 23.9 µM [inhibitor, partial curve]. With O=c1c(CN2CCN(Cc3ccccc3)CC2)coc2ccc(Cl)cc12 the Potency was inconclusive: 21.3 µM [inhibitor, partial curve, poor fit].
